Reference: US5760092A, “Allocolchinones and uses thereof” (Brandeis University, priority 1996, dated 1998)

What was measured:
[1] = system: BT-549 breast cancer cells; conditions: log10 conc -8.0; 0.01 µM
[2] = system: OVCAR-4 ovarian cancer cells
[3] = system: MDA-N breast cancer cells
[4] = system: IGR-OV1 ovarian cancer cells
[5] = system: SK-MEL-2 melanoma cells
[6] = system: CCRF-CEM leukemia cells; conditions: log10 conc -6.0; 1 µM
[7] = system: RPMI-8226 leukemia cells; test: cells; conditions: Homo sapiens
[8] = system: SR leukemia cells; conditions: log10 conc -8.0
[9] = system: K-562 leukemia cells; test: cells; conditions: Homo sapiens
[10] = system: SK-MEL-5 melanoma cells; test: cells; conditions: Homo sapiens
[11] = system: M14 melanoma cells
[12] = system: ACHN renal cancer cells
[13] = system: HCT-116 colon cancer cells; test: cells; conditions: Homo sapiens
[14] = system: MDA-MB-435 breast cancer cells; conditions: log10 conc -6.0; 1 µM
[15] = system: EKVX non-small cell lung cancer cells; test: cells; conditions: Homo sapiens
[16] = system: HCT-15 colon cancer cells; test: cells; conditions: Homo sapiens
[17] = system: UACC-257 melanoma cells; test: cells; conditions: Homo sapiens
[18] = system: HCC-2998 colon cancer cells; test: cells; conditions: Homo sapiens
[19] = system: SK-MEL-28 melanoma cells
[20] = system: SK-MEL-5 melanoma cells
[21] = system: PC-3 prostate cancer cells
[22] = system: OVCAR-5 ovarian cancer cells; test: cells; conditions: Homo sapiens
[23] = system: MALME-3M melanoma cells; test: cells; conditions: Homo sapiens
[24] = system: TK-10 renal cancer cells
[25] = system: SW-620 colon cancer cells; test: cells; conditions: Homo sapiens
[26] = system: SW-620 colon cancer cells; conditions: log10 conc -8.0; 0.01 µM
[27] = system: BT-549 breast cancer cells; test: cells; conditions: Homo sapiens
[28] = system: NCI-H23 non-small cell lung cancer cells
[29] = read-out: Percent Growth, log10 conc -4.0
[30] = read-out: Percent Growth, log10 conc -5.0
[31] = read-out: Percent Growth, log10 conc -6.0
[32] = read-out: Percent Growth, log10 conc -9.0
[33] = read-out: Percent Growth, log10 conc -10.0

## COc1cc2c(c(OC)c1OC)-c1ccc(C(C)=O)cc1C(NC(C)=O)CC2 (centres unmarked)
[1]
  Percent Growth: 74%
[2]; log10 conc -6.0, 1 µM
  Percent Growth: 37%
[2]; log10 conc -7.0, 0.1 µM
  Percent Growth: 42%
[3]; log10 conc -6.0, 1 µM
  Percent Growth: -33%
[3]; log10 conc -7.0, 0.1 µM
  Percent Growth: -41%
[4]; log10 conc -7.0, 0.1 µM
  Percent Growth: 19% and 9%
[4]; log10 conc -8.0
  Percent Growth: 47%
[4]; log10 conc -8.0, 0.01 µM
  Percent Growth: 24%
[5]; log10 conc -6.0, 1 µM
  Percent Growth: 28%
[5]; log10 conc -7.0, 0.1 µM
  Percent Growth: 20%
[5]; log10 conc -8.0, 0.01 µM
  Percent Growth: 29%
[6]
  Percent Growth: -31%
[7]; RPMI-8226, read-out: Percent Growth, log10 conc -4.0
  activity at 100 µM: 24%
[7]; RPMI-8226, read-out: Percent Growth, log10 conc -5.0
  activity at 10 µM: 20%
[7]; RPMI-8226, read-out: Percent Growth, log10 conc -10.0
  activity at 0.0001 µM: 89%
[8]
  Percent Growth: 26%
[9]; K562, read-out: Percent Growth, log10 conc -4.0
  activity at 100 µM: 1%
[9]; K562, read-out: Percent Growth, log10 conc -5.0
  activity at 10 µM: 3%
[9]; K562, read-out: Percent Growth, log10 conc -9.0
  activity at 0.001 µM: 0%
[9]; K562, read-out: Percent Growth, log10 conc -10.0
  activity at 0.0001 µM: 87%
[10]; SK-MEL-5, read-out: Percent Growth, log10 conc -4.0
  activity at 100 µM: -20%
[10]; SK-MEL-5, read-out: Percent Growth, log10 conc -5.0
  activity at 10 µM: -2%
[10]; SK-MEL-5, read-out: Percent Growth, log10 conc -6.0
  activity at 1 µM: 0%
[10]; SK-MEL-5, read-out: Percent Growth, log10 conc -7.0
  activity at 0.1 µM: 4%
[10]; SK-MEL-5, read-out: Percent Growth, log10 conc -8.0
  activity at 0.01 µM: 19%
[10]; SK-MEL-5, read-out: Percent Growth, log10 conc -9.0
  activity at 0.001 µM: 34%
[10]; SK-MEL-5, read-out: Percent Growth, log10 conc -10.0
  activity at 0.0001 µM: 82%
[11]; log10 conc -6.0, 1 µM
  Percent Growth: 22%
[11]; log10 conc -7.0, 0.1 µM
  Percent Growth: 6% and 16%
[11]; log10 conc -8.0, 0.01 µM
  Percent Growth: 15%
[12]; log10 conc -6.0, 1 µM
  Percent Growth: 47%
[12]; log10 conc -7.0, 0.1 µM
  Percent Growth: 47% and 24%
[12]; log10 conc -8.0, 0.01 µM
  Percent Growth: 47%
[13]; HCT-116, read-out: Percent Growth, log10 conc -4.0
  activity at 100 µM: 4%
[13]; HCT-116, read-out: Percent Growth, log10 conc -5.0
  activity at 10 µM: 6%
[13]; HCT-116, read-out: Percent Growth, log10 conc -7.0
  activity at 0.1 µM: 14%
[13]; HCT-116, read-out: Percent Growth, log10 conc -8.0
  activity at 0.01 µM: 12%
[13]; HCT-116, read-out: Percent Growth, log10 conc -9.0
  activity at 0.001 µM: 21%
[13]; HCT-116, read-out: Percent Growth, log10 conc -10.0
  activity at 0.0001 µM: 106%
[14]
  Percent Growth: -52%
[15]; [29]
  activity at 100 µM: 43%
[15]; [30]
  activity at 10 µM: 50%
[15]; [31]
  activity at 1 µM: 37%
[15]; [32]
  activity at 0.001 µM: 44%
[15]; [33]
  activity at 0.0001 µM: 103%
[16]; HCT-15, read-out: Percent Growth, log10 conc -4.0
  activity at 100 µM: 6%
[16]; HCT-15, read-out: Percent Growth, log10 conc -5.0
  activity at 10 µM: 6%
[16]; HCT-15, read-out: Percent Growth, log10 conc -8.0
  activity at 0.01 µM: 31%
[16]; HCT-15, read-out: Percent Growth, log10 conc -9.0
  activity at 0.001 µM: 70%
[16]; HCT-15, read-out: Percent Growth, log10 conc -10.0
  activity at 0.0001 µM: 93%
[17]; UACC-257, read-out: Percent Growth, log10 conc -4.0
  activity at 100 µM: 25%
[17]; UACC-257, read-out: Percent Growth, log10 conc -5.0
  activity at 10 µM: 37%
[17]; UACC-257, read-out: Percent Growth, log10 conc -9.0
  activity at 0.001 µM: 69%
[17]; UACC-257, read-out: Percent Growth, log10 conc -10.0
  activity at 0.0001 µM: 88%
[18]; HCC 2998, read-out: Percent Growth, log10 conc -4.0
  activity at 100 µM: 30%
[18]; HCC 2998, read-out: Percent Growth, log10 conc -5.0
  activity at 10 µM: 30%
[18]; HCC 2998, read-out: Percent Growth, log10 conc -7.0
  activity at 0.1 µM: 25%
[18]; HCC 2998, read-out: Percent Growth, log10 conc -8.0
  activity at 0.01 µM: 97%
[18]; HCC 2998, read-out: Percent Growth, log10 conc -9.0
  activity at 0.001 µM: 110%
[18]; HCC 2998, read-out: Percent Growth, log10 conc -10.0
  activity at 0.0001 µM: 123%
[19]; log10 conc -6.0, 1 µM
  Percent Growth: 60%
[19]; log10 conc -7.0, 0.1 µM
  Percent Growth: 51%
[19]; log10 conc -8.0, 0.01 µM
  Percent Growth: 55%
[20]; log10 conc -7.0, 0.1 µM
  Percent Growth: 3%
[20]; log10 conc -8.0, 0.01 µM
  Percent Growth: 24%
[21]; log10 conc -6.0, 1 µM
  Percent Growth: 30%
[21]; log10 conc -7.0, 0.1 µM
  Percent Growth: 30%
[21]; log10 conc -8.0, 0.01 µM
  Percent Growth: 40%
[22]; OVCAR-5, read-out: Percent Growth, log10 conc -4.0
  activity at 100 µM: 21%
[22]; OVCAR-5, read-out: Percent Growth, log10 conc -5.0
  activity at 10 µM: 23%
[22]; OVCAR-5, read-out: Percent Growth, log10 conc -6.0
  activity at 1 µM: 41%
[22]; OVCAR-5, read-out: Percent Growth, log10 conc -8.0
  activity at 0.01 µM: 39%
[22]; OVCAR-5, read-out: Percent Growth, log10 conc -9.0
  activity at 0.001 µM: 41%
[22]; OVCAR-5, read-out: Percent Growth, log10 conc -10.0
  activity at 0.0001 µM: 103%
[23]; [29]
  activity at 100 µM: 42%
[23]; [30]
  activity at 10 µM: 46%
[23]; [31]
  activity at 1 µM: 57%
[23]; read-out: Percent Growth, log10 conc -7.0
  activity at 0.1 µM: 51%
[23]; read-out: Percent Growth, log10 conc -8.0
  activity at 0.01 µM: 52%
[23]; [32]
  activity at 0.001 µM: 53%
[23]; [33]
  activity at 0.0001 µM: 91%
[24]; log10 conc -7.0, 0.1 µM
  Percent Growth: 55%
[24]; log10 conc -8.0, 0.01 µM
  Percent Growth: 44%
[25]; SW-620, read-out: Percent Growth, log10 conc -4.0
  activity at 100 µM: 23%
[25]; SW-620, read-out: Percent Growth, log10 conc -5.0
  activity at 10 µM: 17%
[25]; SW-620, read-out: Percent Growth, log10 conc -6.0
  activity at 1 µM: 23%
[25]; SW-620, read-out: Percent Growth, log10 conc -7.0
  activity at 0.1 µM: 24%
[25]; SW-620, read-out: Percent Growth, log10 conc -8.0
  activity at 0.01 µM: 23%
[25]; SW-620, read-out: Percent Growth, log10 conc -9.0
  activity at 0.001 µM: 22%
[25]; SW-620, read-out: Percent Growth, log10 conc -10.0
  activity at 0.0001 µM: 90%
[26]
  Percent Growth: 26%
[27]; BT-549, read-out: Percent Growth, log10 conc -4.0
  activity at 100 µM: 56%
[27]; BT-549, read-out: Percent Growth, log10 conc -5.0
  activity at 10 µM: 55%
[27]; BT-549, read-out: Percent Growth, log10 conc -6.0
  activity at 1 µM: 46%
[27]; BT-549, read-out: Percent Growth, log10 conc -7.0
  activity at 0.1 µM: 46%
[27]; BT-549, read-out: Percent Growth, log10 conc -8.0
  activity at 0.01 µM: 54%
[27]; BT-549, read-out: Percent Growth, log10 conc -9.0
  activity at 0.001 µM: 62%
[27]; BT-549, read-out: Percent Growth, log10 conc -10.0
  activity at 0.0001 µM: 93%
[28]; log10 conc -6.0, 1 µM
  Percent Growth: 25%
[28]; log10 conc -7.0, 0.1 µM
  Percent Growth: 29%
[28]; log10 conc -8.0, 0.01 µM
  Percent Growth: 36%

“And” between values parts separate entries of the source, which are not always exact repeats. Equal values may be shown once. Read-outs that look alike come from different tables or passages of the source.
